Experimental data published in the supplement of paper PMC3334620.
Whole data set: some 33,000 sequences, median “E-score (-0.5 to 0.5)” near -0.032, cut for the highest 2% near 0.36. The list shows a part of the results.

Molecular target: T1, Sko1 (UniProt Q02100)
T1 sequence: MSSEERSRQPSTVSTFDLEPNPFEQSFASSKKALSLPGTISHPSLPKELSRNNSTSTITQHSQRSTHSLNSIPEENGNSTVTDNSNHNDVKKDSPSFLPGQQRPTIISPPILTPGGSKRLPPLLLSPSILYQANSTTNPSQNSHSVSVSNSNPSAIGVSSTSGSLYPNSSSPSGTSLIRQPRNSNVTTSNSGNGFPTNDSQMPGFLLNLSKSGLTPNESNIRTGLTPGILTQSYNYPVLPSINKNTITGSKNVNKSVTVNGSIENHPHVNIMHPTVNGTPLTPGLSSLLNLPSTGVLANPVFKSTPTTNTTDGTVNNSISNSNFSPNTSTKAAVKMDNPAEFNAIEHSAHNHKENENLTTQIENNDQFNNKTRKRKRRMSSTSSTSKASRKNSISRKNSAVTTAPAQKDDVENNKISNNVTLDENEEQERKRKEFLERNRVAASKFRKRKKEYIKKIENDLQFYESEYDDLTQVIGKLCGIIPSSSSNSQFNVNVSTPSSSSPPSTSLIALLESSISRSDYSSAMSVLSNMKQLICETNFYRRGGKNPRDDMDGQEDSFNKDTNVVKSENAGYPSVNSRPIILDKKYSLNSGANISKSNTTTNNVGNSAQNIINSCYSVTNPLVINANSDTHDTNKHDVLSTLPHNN
Experiment: PBM E-score (8-mer binding enrichment) (E-score (-0.5 to 0.5)); higher = stronger / more preferred TF binding; most listed sequences are background and not binding sites
Conditions: protein concentration: 200 nM; construct: GST-full length
In short: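 Using PURExpress in vitro transcription/translation, GST-tagged yeast transcription factors were made in full-length or DNA-binding-domain form. These were applied at about 100-200 nM to double-stranded universal all-10-mer Agilent arrays, and bound protein was detected with fluorescent anti-GST. Scans were normalised with masliner before the Universal PBM Analysis Suite assigned E-scores to ungapped eight-base words pooled with their reverse complements.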

Row | Sequence | PBM E-score
1 | CCAGCTAG | 0.0505
2 | AGAAGAAG | -0.281
3 | CTCAGGCA | -0.256
4 | ATACAGAG | -0.0247
5 | GCCGCAAC | -0.0542
6 | ATCAACGC | 0.0933
7 | GGTGCCCA | -0.233
8 | AGTACGTG | 0.365
9 | AAAATCCC | -0.142
10 | GCTGACAA | 0.0038
11 | CTTGCAAC | 0.0967
12 | AAGCCTGA | -0.151
13 | GTACTAGA | 0.205
14 | ACTTACAG | 0.0538
15 | CGCGGTCA | -0.123
16 | ACTTAGTA | 0.0606
17 | ACATCGGG | -0.199
18 | GAACCTAC | 0.0497
19 | ACTCCGTC | 0.105
20 | GCCCGAAC | -0.24
21 | CTCTCGGC | -0.296
22 | AAGTGGGA | 0.0345

Row | Sequence | PBM E-score
23 | AGCTAGCC | -0.226
24 | CCTCAACC | -0.16
25 | GGAAGGAA | -0.213
26 | AGTCCCTC | -0.33
27 | ATTCGAGA | -0.0173
28 | AAGGTATG | -0.0471
29 | ACTTGTGA | 0.0538
30 | ACCCACCC | -0.0216
31 | GGTAGTAC | -0.0421
32 | CTCCCGCA | -0.197
33 | GACATCAA | 0.275
34 | AACACAAG | 0.0471
35 | AGAAAGCA | 0.163
36 | TGAAAACA | 0.159
37 | ATCTATAC | 0.147
38 | CCACTCCC | -0.334
39 | CGGCTTGC | -0.059
40 | AACACAGC | 0.075
41 | GGTTGGGA | -0.0888
42 | CAGGCGGC | -0.207
43 | CATATCGA | 0.00288
44 | CTCAACAC | 0.141

Row | Sequence | PBM E-score
45 | ACACTTAT | 0.113
46 | ACCGTACT | 0.00383
47 | AATCCTCT | -0.183
48 | CACTTCAG | -0.208
49 | ACCGTTGA | -0.16
50 | CTGACCCC | -0.2
51 | CACTACGC | 0.209
52 | ATCCAGGA | -0.288
53 | GAGCAAAA | -0.0985
54 | CAACTGCG | -0.0192
55 | CTCCCTCC | -0.324
56 | AACCATAC | 0.0263
57 | TGACTACA | 0.177
58 | ACATTCGG | -0.158
59 | GAACAGCC | -0.136
60 | CAGGTAGG | -0.175
61 | CACTTGGA | -0.0229
62 | ACTAGTAA | 0.0995
63 | AGAGTCAC | 0.074
64 | AGGCCCTA | -0.223
65 | AGATACTA | -0.0875
66 | AGCCATCA | 0.148

Row | Sequence | PBM E-score
67 | GACTGAAA | -0.142
68 | CGAAAACC | 0.117
69 | AATATTAT | 0.205
70 | CGTTAACC | 0.126
71 | TCTAGGAA | -0.0779
72 | GAGAAAGA | -0.0919
73 | GGTTGGCA | -0.0984
74 | CTAAGTCA | 0.0862
75 | CATTCGTC | 0.304
76 | AATTCGCC | 0.111
77 | ATAGCTGC | 0.0957
78 | GCGGGCAA | -0.102
79 | CCCAACTA | 0.00148
80 | CCCGAGAG | -0.322
81 | CTACGTGA | 0.404
82 | CCCATCTA | -0.144
83 | ACACCATA | 0.0576
84 | ACTACGTA | 0.484
85 | ATGATCCA | -0.207
86 | AATATTGT | 0.231
